Experimental data reported in patent US9957247B2, “SecA inhibitors and methods of making and using thereof” (Georgia State University Research Foundation, Inc., priority 2012, dated 2018).
≈ marks a conversion by molar mass, not a printed value.

Experiments:
E. coli NR698 [1] = experiment: microbe, parasite or virus in culture; settings: Escherichia coli, NR698, read-out: MIC, E. coli NR698
E. coli NR698 [2] = experiment: Plate assay, bacteriostatic effect, E. coli NR698; assay type: cell-based; settings: fluorescein analogues
Description: Plate assay: A 0.5 mL culture of bacterial cells (exponential phase, OD600=0.5) was mixed with LB (4 mL) supplemented with glucose (0.2%) and soft agar (0.75%) and then poured into petri dishes. After the soft agar solidified, test compound (1 mL) was spotted on the surface of the culture. Bacteriostatic effects were judged by the appearance of a clear zone of growth inhibition after overnight incubation at 37° C.

S. aureus K2068 (MepA++) = experiment: microbe, parasite or virus in culture; settings: Staphylococcus aureus, read-out: Bacteriostatic effect, MIC, MepA++ K2068
E. coli NR698 [3] = settings: 100 μM, one-hour treatment
S. aureus K1758 (NorA−) = experiment: microbe, parasite or virus in culture; settings: Staphylococcus aureus, read-out: Bacteriostatic effect, MIC, NorA− K1758
S. aureus K2361 (NorA++) = experiment: microbe, parasite or virus in culture; settings: Staphylococcus aureus, read-out: Bacteriostatic effect, MIC, NorA++ K2361
S. aureus K2908 (MepA−) = experiment: microbe, parasite or virus in culture; settings: Staphylococcus aureus, read-out: Bacteriostatic effect, MIC, MepA− K2908

For `Oc1ccc2c(c1)Oc1cc(O)ccc1C2C1CCCC1` [Compound 22a, 9-Cyclopentyl-9H-xanthene-3,6-diol], the MIC (E. coli NR698 [1]) was 45 µM (≈ 12.7 µg/mL).

Compound `CC(C)C1c2ccc(O)cc2Oc2cc(O)ccc21` [Compound 22b, 9-Isopropyl-9H-xanthene-3,6-diol] has an MIC (E. coli NR698 [1]) of 90 µM (≈ 23.1 µg/mL).

Compound `CCCCCCC1c2ccc(O)cc2Oc2cc(O)ccc21` [Compound 22c, 9-Hexyl-9H-xanthene-3,6-diol] has an MIC (E. coli NR698 [1]) of 19 µM (≈ 5.67 µg/mL).

Compound `Oc1ccc2c(c1)Oc1cc(O)ccc1C2C1CCCCC1` [Compound 22d, 9-Cyclohexyl-9H-xanthene-3,6-diol] has an MIC (E. coli NR698 [1]) of 25 µM (≈ 7.41 µg/mL).

In the case of `Oc1c(Br)cc2c(c1Br)Oc1c(cc(Br)c(O)c1Br)C2C1CCCC1` [Compound 23a, 2,4,5,7-Tetrabromo-9-cyclopentyl-9H-xanthene-3,6-diol], the MIC (E. coli NR698 [1]) is reported as 2 µM (≈ 1.2 µg/mL).

`Oc1c(I)cc2c(c1I)Oc1c(cc(I)c(O)c1I)C2C1CCCC1` [Compound 23b, 9-Cyclopentyl-2,4,5,7-tetraiodo-9H-xanthene-3,6-diol] was tested, and the MIC (E. coli NR698 [1]) was 1 µM (≈ 0.786 µg/mL).

In the case of `Oc1cc2c(cc1I)C(C1CCCC1)c1cc(I)c(O)c(I)c1O2` (centres unmarked) [Compound 23c], the MIC (E. coli NR698 [1]) is reported as 6 µM (≈ 3.96 µg/mL).

`CC(C)C1c2cc(I)c(O)c(I)c2Oc2c1cc(I)c(O)c2I` [Compound 23d, 2,4,5,7-Tetraiodo-9-isopropyl-9H-xanthene-3,6-diol] gave an MIC (E. coli NR698 [1]) of 4 µM (≈ 3.04 µg/mL).

With `O=C([O-])c1ccccc1-c1c2ccc(=O)c(I)c-2oc2c(I)c([O-])ccc12.[Na+].[Na+]` [DI, Diiodofluorescein, reference compound] the “MIC values, plate assays” value (E. coli NR698 [2]) was “millimolar range”.

`O.O=C([O-])c1ccccc1-c1c2cc(I)c(=O)c(I)c-2oc2c(I)c([O-])c(I)cc12.[Na+].[Na+]` [EB, Erythrosin B] was tested, and the “MIC values, plate assays” value (E. coli NR698 [2]) was “micromolar range”.

In the case of `O=C(O)c1c(Cl)c(Cl)c(Cl)c(Cl)c1-c1c2cc(I)c(=O)c(I)c-2oc2c(I)c(O)c(I)cc12` [RB, Rose Bengal], the MIC (S. aureus K2068 (MepA++)) is reported as 17.5 µg/mL (≈ 18 µM), the “Decrease of cell survival (CFU)” value (E. coli NR698 [3]) is reported as “about 10 log units” and the “MIC values, plate assays” value (E. coli NR698 [2]) is reported as “micromolar range”. For the same compound, the MIC (S. aureus K1758 (NorA−)) was 22.3 µg/mL (≈ 22.9 µM), the MIC (S. aureus K2361 (NorA++)) was 34.6 µg/mL (≈ 35.5 µM) and the MIC (E. coli NR698 [1]) was 5 µM (≈ 4.87 µg/mL). It also gave an MIC (S. aureus K2908 (MepA−)) of 10.6 µg/mL (≈ 10.9 µM).

With `Oc1ccc2c(c1)Oc1cc(O)ccc1C2C1CCCC1` [SCA-41] the MIC (S. aureus K2068 (MepA++)) was 11.8 µg/mL (≈ 41.8 µM), the MIC (S. aureus K1758 (NorA−)) was 14.1 µg/mL (≈ 49.9 µM) and the MIC (S. aureus K2361 (NorA++)) was 11.8 µg/mL (≈ 41.8 µM). The MIC (S. aureus K2908 (MepA−)) was 14.1 µg/mL (≈ 49.9 µM).

`CCCCCCC1c2ccc(O)cc2Oc2cc(O)ccc21` [SCA-50] was tested, and the MIC (S. aureus K2068 (MepA++)) was 3.7 µg/mL (≈ 12.4 µM), the MIC (S. aureus K1758 (NorA−)) was 3.7 µg/mL (≈ 12.4 µM) and the MIC (S. aureus K2361 (NorA++)) was 3.7 µg/mL (≈ 12.4 µM). For the same compound, the MIC (S. aureus K2908 (MepA−)) was 3.7 µg/mL (≈ 12.4 µM).

For Dinitrofluorescein [DN], the “MIC values, plate assays” value (E. coli NR698 [2]) was “millimolar range”.
